No constants are given. Whether binding was seen depends on the method and setting. Binding seen in cells or lysates may run through a third protein. Some entries that bind do so weakly or less than the wild type. For part of these data: Tags and fused reporters may be left off the sequences shown.
T1: MGA p.C623*, Flag-tagged (UniProt Q8IWI9)
T1 sequence: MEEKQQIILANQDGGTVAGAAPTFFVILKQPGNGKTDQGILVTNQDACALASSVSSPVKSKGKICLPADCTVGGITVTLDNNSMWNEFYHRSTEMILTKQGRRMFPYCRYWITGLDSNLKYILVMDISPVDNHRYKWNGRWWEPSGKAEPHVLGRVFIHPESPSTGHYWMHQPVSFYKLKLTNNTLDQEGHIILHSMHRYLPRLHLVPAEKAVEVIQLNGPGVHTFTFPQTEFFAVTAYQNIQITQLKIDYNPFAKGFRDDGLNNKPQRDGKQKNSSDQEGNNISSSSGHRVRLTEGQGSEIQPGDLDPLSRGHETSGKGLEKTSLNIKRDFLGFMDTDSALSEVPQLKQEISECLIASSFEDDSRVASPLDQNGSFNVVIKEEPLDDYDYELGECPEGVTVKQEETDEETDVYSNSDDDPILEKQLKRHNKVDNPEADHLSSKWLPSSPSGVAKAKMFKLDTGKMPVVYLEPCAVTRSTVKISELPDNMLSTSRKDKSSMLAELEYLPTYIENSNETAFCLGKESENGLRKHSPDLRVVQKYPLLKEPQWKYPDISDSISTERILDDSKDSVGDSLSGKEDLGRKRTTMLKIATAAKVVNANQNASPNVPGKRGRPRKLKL

Amino acid sequences for entries named in this document (tags omitted).
UniProt P61244: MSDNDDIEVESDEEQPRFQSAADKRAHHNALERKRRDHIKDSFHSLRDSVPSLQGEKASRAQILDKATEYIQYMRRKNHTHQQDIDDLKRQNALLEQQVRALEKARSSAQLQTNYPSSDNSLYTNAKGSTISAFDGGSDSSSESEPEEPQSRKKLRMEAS
UniProt Q969R5: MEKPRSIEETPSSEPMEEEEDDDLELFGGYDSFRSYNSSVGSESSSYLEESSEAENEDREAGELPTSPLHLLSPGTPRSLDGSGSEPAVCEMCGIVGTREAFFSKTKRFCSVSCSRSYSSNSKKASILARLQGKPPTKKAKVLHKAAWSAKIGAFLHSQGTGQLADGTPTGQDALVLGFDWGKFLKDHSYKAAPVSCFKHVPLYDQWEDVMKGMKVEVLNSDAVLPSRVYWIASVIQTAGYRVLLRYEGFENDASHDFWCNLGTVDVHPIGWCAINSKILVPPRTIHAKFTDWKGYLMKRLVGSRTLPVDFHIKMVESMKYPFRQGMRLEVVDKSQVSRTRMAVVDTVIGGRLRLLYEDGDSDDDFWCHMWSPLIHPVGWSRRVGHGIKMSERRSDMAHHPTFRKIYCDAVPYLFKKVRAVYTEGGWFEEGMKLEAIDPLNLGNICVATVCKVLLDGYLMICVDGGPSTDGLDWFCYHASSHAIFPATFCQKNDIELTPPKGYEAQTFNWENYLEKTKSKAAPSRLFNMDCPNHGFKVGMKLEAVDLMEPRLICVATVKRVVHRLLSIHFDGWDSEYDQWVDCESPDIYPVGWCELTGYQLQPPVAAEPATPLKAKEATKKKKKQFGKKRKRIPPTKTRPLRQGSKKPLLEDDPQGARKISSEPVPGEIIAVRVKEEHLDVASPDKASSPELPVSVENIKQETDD

B1: PCGF6 (protein, UniProt Q9BYE7 1-350)
chain: MEGVAVVTAGSVGAAKTEGAAALPPPPPVSPPALTPAPAAGEEGPAPLSETGAPGCSGSRPPELEPERSLGRFRGRFEDEDEELEEEEELEEEEEEEEEDMSHFSLRLEGGRQDSEDEEERLINLSELTPYILCSICKGYLIDATTITECLHTFCKSCIVRHFYYSNRCPKCNIVVHQTQPLYNIRLDRQLQDIVYKLVINLEEREKKQMHDFYKERGLEVPKPAVPQPVPSSKGRSKKVLESVFRIPPELDMSLLLEFIGANEGTGHFKPLEKKFVRVSGEATIGHVEKFLRRKMGLDPACQVDIICGDHLLEQYQTLREIRRAIGDAAMQDGLLVLHYGLVVSPLKIT

Assays:
[1] = biological target: T1, MGA p.C623*, Flag-tagged; assay: co-IP; Flag-tagged MGA constructs co-expressed with HA-tagged MAX in HEK293T cells; immunoprecipitation, then western blot for components of the ncPRC1.6 complex
[2] = biological target: full-length MGA (WT-MGA), Flag-tagged (UniProt Q8IWI9); assay: as above

Molecule	binding [1]	binding [2]
HA-tagged MAX (from UniProt P61244 1-160)	no binding	binds
L3MBTL2 (from UniProt Q969R5 1-705)	no binding	binds
B1	no binding	binds

From PMC10543392
